Results are given in words; binding and its absence hold for the method and conditions named. Some results given as binding are weak or reduced against the parent protein; the word gives no strength.
How the values were obtained:
[1] = molecular target: Integrator subunit 14 (INTS14), Gal4 fusion (human) (UniProt Q96SY0); assay: two-hybrid; pairwise: INTS14 fused to the Gal4 DNA-binding domain against each of the other Integrator subunits fused to the activation domain (Supplementary Fig. 3b, left)
[2] = molecular target: Integrator subunit 13 (INTS13), full length, Gal4 fusion (human) (UniProt Q9NVM9); assay: two-hybrid; pairwise: INTS13 fused to the Gal4 DNA-binding domain mated with strains expressing each individual Integrator subunit fused to the Gal4 activation domain; medium lacking histidine with 1 mM 3AT (Fig. 3a, left)
[3] = molecular target: INTS4/9/11 heterotrimer (Integrator Cleavage Module), co-expressed in yeast (human) (UniProt Q96HW7+Q9NV88+Q5TA45); assay: two-hybrid; modified: INTS13 (wild type, fragments or patient mutants) fused to the Gal4 activation domain against co-expressed INTS4/9/11 (wild type or point mutants); medium lacking histidine with 3AT (Fig. 3b, 3d; Supplementary Fig. 2c)
[4] = molecular target: His-tagged full-length human INTS4 (insect cells) (human) (UniProt Q96HW7); assay: pull-down + SEC; four proteins co-expressed in High Five cells; nickel affinity by His-INTS4, then Superdex 200 gel filtration in 20 mM Tris pH 8.0, 250 mM NaCl, 5 mM DTT; fractions on SDS-PAGE; both purified

By UniProt entry, the sequences of proteins in these tests, tags left out. Where a name states a change or a piece, a line headed by the entry shows the natural chain unless it says otherwise. Residues count along the entry.
UniProt Q96SY0: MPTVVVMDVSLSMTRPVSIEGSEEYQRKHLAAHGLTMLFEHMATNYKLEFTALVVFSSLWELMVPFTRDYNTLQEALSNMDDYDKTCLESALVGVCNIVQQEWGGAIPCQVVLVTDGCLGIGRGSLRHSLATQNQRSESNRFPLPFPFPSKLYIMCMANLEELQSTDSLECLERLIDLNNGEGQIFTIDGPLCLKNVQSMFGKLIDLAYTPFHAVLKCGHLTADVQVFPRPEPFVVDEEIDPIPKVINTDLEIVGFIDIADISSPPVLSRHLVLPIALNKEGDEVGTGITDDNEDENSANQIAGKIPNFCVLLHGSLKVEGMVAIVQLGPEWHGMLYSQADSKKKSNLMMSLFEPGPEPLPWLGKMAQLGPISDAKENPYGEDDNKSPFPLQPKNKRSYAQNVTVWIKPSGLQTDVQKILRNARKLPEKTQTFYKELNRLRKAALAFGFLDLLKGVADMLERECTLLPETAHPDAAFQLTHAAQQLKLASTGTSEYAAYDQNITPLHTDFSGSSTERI
UniProt Q9NVM9: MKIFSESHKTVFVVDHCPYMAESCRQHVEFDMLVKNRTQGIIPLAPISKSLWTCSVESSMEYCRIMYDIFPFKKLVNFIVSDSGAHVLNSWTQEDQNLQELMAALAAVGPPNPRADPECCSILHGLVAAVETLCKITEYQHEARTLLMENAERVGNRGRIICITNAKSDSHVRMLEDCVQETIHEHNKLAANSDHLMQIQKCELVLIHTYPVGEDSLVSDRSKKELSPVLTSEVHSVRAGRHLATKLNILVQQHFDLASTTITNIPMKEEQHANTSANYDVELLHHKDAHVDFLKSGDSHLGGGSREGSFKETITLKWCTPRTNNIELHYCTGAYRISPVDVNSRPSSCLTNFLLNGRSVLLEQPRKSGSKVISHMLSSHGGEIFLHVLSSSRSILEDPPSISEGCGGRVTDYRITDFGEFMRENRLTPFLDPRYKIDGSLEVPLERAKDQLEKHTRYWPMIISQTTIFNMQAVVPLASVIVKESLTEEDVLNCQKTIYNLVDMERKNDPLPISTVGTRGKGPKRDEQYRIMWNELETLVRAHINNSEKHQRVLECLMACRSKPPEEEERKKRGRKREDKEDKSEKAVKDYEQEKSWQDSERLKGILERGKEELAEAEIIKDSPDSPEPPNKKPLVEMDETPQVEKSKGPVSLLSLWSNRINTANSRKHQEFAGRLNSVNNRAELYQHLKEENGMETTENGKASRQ
INTS13 C-terminal region, amino acids 501-706, Gal4 activation domain fusion: residues 501-706 of Q9NVM9
INTS13 amino acids 577-706, Gal4 activation domain fusion: residues 577-706 of Q9NVM9
UniProt Q96HW7: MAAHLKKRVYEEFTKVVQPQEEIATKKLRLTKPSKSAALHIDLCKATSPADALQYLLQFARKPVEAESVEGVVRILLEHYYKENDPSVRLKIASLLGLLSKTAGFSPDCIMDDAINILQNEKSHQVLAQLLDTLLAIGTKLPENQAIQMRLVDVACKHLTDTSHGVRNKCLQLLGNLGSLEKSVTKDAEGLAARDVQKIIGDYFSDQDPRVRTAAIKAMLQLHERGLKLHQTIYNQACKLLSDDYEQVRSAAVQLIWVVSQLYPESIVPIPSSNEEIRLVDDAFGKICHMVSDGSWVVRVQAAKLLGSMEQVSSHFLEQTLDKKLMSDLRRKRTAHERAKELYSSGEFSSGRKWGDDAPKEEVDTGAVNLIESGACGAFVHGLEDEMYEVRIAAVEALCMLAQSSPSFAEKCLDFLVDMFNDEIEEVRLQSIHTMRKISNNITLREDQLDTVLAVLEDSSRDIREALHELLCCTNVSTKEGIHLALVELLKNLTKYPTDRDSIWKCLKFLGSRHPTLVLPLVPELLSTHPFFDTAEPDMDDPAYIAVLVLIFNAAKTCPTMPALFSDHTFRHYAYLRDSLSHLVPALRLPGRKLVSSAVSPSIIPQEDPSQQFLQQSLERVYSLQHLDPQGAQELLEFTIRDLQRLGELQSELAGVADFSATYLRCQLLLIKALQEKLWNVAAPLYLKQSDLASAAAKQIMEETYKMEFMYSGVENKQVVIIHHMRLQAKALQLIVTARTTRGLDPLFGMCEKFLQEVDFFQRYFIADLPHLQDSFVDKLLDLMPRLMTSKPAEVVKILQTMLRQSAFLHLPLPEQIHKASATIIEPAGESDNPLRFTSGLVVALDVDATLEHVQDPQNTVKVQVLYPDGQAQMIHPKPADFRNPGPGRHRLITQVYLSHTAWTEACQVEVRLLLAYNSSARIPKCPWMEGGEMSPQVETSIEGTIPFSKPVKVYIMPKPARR
UniProt Q9NV88: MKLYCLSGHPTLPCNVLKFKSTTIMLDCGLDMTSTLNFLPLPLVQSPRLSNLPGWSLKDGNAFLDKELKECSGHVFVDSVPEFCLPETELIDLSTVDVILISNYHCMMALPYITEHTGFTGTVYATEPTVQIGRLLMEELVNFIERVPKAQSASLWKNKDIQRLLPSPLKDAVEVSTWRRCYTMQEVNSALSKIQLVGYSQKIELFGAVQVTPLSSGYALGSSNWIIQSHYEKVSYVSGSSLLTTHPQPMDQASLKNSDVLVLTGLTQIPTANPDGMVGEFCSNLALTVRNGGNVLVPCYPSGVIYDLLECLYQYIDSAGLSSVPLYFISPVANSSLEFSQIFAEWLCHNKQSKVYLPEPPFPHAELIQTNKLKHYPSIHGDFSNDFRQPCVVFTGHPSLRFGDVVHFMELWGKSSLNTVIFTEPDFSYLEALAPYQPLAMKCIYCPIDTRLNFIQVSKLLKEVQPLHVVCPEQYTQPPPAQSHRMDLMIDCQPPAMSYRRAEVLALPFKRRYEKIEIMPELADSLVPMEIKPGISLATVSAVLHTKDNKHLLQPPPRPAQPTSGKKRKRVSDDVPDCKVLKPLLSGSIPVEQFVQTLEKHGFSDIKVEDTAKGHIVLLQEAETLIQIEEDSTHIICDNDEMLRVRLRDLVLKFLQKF
UniProt Q5TA45: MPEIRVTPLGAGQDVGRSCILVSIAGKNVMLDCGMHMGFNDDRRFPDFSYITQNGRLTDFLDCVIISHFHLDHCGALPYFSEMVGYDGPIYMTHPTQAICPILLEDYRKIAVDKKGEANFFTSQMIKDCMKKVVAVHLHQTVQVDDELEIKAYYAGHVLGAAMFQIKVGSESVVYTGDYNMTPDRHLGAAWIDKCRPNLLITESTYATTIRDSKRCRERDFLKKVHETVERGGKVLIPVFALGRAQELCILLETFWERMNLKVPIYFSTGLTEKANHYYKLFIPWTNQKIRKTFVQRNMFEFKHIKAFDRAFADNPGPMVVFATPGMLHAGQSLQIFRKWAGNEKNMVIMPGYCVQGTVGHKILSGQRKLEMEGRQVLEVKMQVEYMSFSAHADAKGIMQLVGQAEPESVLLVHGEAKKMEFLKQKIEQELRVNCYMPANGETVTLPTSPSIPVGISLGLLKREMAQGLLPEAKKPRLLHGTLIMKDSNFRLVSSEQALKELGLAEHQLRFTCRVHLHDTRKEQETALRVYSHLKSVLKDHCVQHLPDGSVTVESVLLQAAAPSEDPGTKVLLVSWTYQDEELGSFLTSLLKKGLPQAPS
UniProt Q75QN2: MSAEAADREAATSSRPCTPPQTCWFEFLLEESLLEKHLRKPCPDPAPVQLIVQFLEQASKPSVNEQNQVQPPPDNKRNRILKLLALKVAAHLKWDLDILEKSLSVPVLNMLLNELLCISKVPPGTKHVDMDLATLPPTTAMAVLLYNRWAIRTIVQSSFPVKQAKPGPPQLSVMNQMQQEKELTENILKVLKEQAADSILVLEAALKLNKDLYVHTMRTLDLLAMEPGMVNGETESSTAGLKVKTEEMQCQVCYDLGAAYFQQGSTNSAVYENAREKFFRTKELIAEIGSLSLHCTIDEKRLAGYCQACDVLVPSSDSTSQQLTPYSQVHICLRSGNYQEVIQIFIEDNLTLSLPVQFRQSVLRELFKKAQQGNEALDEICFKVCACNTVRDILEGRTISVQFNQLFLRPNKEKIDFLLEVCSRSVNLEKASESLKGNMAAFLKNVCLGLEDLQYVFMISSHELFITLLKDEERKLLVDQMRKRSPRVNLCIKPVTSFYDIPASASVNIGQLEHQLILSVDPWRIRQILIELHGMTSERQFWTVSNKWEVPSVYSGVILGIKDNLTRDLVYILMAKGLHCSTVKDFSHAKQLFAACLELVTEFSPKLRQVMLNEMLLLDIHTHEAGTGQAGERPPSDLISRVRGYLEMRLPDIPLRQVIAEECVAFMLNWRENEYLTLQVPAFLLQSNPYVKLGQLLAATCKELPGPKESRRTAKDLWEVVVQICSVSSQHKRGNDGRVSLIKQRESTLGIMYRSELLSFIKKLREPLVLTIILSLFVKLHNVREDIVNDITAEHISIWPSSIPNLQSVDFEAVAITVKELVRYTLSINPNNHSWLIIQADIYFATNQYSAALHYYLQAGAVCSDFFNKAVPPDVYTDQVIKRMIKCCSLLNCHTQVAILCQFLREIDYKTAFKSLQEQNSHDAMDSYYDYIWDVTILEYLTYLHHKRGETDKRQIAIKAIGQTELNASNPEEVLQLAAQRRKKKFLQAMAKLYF
UniProt Q6P9B9: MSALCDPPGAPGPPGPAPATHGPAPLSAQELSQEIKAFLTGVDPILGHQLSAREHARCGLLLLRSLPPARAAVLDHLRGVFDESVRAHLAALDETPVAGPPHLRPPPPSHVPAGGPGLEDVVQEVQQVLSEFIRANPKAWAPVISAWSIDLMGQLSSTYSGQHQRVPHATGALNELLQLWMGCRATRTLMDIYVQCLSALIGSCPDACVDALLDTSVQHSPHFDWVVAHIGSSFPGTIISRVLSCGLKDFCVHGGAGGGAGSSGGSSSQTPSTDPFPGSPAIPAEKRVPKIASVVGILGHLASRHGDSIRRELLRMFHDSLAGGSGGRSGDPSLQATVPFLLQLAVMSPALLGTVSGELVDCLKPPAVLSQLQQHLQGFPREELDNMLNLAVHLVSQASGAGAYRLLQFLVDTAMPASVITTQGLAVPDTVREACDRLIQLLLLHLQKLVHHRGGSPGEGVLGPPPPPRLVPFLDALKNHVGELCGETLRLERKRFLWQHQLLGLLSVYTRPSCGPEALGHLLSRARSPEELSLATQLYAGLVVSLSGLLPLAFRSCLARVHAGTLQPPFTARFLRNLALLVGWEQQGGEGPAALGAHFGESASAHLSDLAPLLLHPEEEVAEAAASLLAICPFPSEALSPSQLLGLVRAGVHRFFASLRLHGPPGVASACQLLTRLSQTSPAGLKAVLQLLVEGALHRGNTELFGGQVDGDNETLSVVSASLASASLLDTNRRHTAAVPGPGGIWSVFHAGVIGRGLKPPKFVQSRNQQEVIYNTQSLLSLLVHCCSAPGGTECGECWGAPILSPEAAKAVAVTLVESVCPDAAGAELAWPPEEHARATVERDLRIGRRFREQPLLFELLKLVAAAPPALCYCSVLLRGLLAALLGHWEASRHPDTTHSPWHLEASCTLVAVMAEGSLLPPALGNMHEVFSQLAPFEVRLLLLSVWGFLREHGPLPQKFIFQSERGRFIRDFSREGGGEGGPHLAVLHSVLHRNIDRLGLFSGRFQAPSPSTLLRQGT
UniProt Q9NVH2: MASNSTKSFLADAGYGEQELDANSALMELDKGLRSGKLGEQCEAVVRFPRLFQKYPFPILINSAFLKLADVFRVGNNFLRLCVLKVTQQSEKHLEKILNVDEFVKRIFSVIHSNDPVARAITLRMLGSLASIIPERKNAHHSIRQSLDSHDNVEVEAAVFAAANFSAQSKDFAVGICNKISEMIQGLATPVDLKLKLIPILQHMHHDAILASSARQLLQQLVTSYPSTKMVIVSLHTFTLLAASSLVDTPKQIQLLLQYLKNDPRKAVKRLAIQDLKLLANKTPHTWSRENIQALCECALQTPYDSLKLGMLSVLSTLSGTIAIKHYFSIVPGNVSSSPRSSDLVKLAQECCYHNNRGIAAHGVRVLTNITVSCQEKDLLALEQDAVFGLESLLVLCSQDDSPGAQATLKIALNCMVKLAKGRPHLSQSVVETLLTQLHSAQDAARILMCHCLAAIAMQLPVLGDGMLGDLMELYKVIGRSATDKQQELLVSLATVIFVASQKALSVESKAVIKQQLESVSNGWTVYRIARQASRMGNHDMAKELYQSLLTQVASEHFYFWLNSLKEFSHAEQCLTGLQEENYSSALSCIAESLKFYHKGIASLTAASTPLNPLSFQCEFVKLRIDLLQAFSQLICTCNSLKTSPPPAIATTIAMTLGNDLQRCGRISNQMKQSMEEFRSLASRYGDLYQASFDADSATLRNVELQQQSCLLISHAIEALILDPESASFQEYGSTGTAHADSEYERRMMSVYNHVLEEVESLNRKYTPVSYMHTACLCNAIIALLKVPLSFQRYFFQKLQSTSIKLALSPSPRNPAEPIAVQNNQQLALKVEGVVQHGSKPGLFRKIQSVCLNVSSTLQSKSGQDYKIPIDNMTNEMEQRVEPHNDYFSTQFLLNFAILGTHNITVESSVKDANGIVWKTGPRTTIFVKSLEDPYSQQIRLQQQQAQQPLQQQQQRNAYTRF

Substance | binding [1] | binding [2] | binding [3] | binding [4]
Integrator subunit 4 (INTS4), Gal4 fusion (from UniProt Q96HW7 1-963) | no binding |  |  | 
Integrator subunit 8 (INTS8), Gal4 activation domain fusion (from UniProt Q75QN2 1-995) | no binding | no binding |  | 
Integrator subunit 13 (INTS13), full length, Gal4 fusion (from UniProt Q9NVM9-1 1-706) |  |  | binds | 
INTS13 Family 2 mutant (p.S652L), Gal4 activation domain fusion (from UniProt Q9NVM9-1 1-706) |  |  | no binding | 
INTS13 amino acids 577-706, Gal4 activation domain fusion (from UniProt Q9NVM9-1 577-706) (domain or fragment) |  |  | binds | 
Integrator subunit 2 (INTS2), Gal4 activation domain fusion (from UniProt Q9H0H0 1-1196) | no binding | no binding |  | 
Integrator subunit 9 (INTS9), Gal4 fusion (from UniProt Q9NV88 1-658) | no binding |  |  | 
Integrator subunit 6 (INTS6), Gal4 activation domain fusion (from UniProt Q9UL03 1-887) | no binding | no binding |  | 

Next, values leading:

binding [1] | binding [2] | binding [3] | binding [4] | Substance
no binding | no binding |  |  | Integrator subunit 5 (INTS5), Gal4 activation domain fusion (from UniProt Q6P9B9 1-1019)
 |  | binds |  | INTS13 C-terminal region, amino acids 501-706, Gal4 activation domain fusion (from UniProt Q9NVM9-1 501-706) (domain or fragment)
 |  |  | binds | untagged full-length human INTS9 (insect cells) (from UniProt Q9NV88 1-658)
no binding | no binding |  |  | Integrator subunit 3 (INTS3), Gal4 activation domain fusion (from UniProt Q68E01 1-1043)
no binding | no binding |  |  | Integrator subunit 7 (INTS7), Gal4 activation domain fusion (from UniProt Q9NVH2 1-962)

— publication PMC9559116
